# Measured values taken from the supplement of paper PMC7125110.
# ± gives the standard error. Variants at the background level are over-represented here.
# B1: glmS ribozyme (parent)
# chain: AUAAAAGCGCCAGAACUACAGAAAUGUAGUUGACGAGGAGGAGGUUUAUCGAAUUUUCGGCGGAUGCCUCCAAA
# Columns and labels:
# Details in all cases: with glucosamine-6-phosphate
# glucosamine-6-phosphate [1] = variants of: B1; test: self-cleavage kobs at 40 uM GlcN6P; higher = faster cleavage; RNA array
# Outline: (§1)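 The measurements used barcoded ribozyme variants on sequenced MiSeq chips, transcribed in situ by E. coli RNA polymerase and tracked at 37 °C with a hybridised Cy3 probe. Glucosamine-6-phosphate, 40 μM to 10 mM in HEPES/KCl/Mg(OAc)2 buffer, was flowed in while tiles were imaged over ~14 h. Baseline-normalised signals, also normalised to non-cleaving reference variants, gave per-tile medians that were fit to one- or two-exponential decays for kobs. kcat and KM resulted from weighted Michaelis–Menten fits across concentrations.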
# glucosamine-6-phosphate [2] = variants of: B1; test: self-cleavage kobs at 10000 uM GlcN6P; higher = faster cleavage; RNA array
# Outline: as §1
# glucosamine-6-phosphate [3] = variants of: B1; test: self-cleavage kobs at 640 uM GlcN6P; higher = faster cleavage; RNA array
# Outline: as §1
# glucosamine-6-phosphate [4] = variants of: B1; test: self-cleavage kobs at 2500 uM GlcN6P; higher = faster cleavage; RNA array
# Outline: as §1
# glucosamine-6-phosphate [5] = variants of: B1; test: self-cleavage kobs at 160 uM GlcN6P; higher = faster cleavage; RNA array
# Outline: as §1
Variant,self-cleavage kobs at 40 uM GlcN6P (glucosamine-6-phosphate [1]),self-cleavage kobs at 10000 uM GlcN6P (glucosamine-6-phosphate [2]),self-cleavage kobs at 640 uM GlcN6P (glucosamine-6-phosphate [3]),self-cleavage kobs at 2500 uM GlcN6P (glucosamine-6-phosphate [4]),self-cleavage kobs at 160 uM GlcN6P (glucosamine-6-phosphate [5])
G62U G66U C67U,< 1e-05 s⁻¹,< 1e-05 s⁻¹,,,
G63C C67A,< 1e-05 s⁻¹,< 1e-05 s⁻¹,< 1e-05 s⁻¹,,
G63C C68G,< 1e-05 s⁻¹,< 1e-05 s⁻¹,,,
G63U G66A,< 1e-05 s⁻¹,< 1e-05 s⁻¹,< 1e-05 s⁻¹,,
A64C C67A,< 1e-05 s⁻¹,< 1e-05 s⁻¹,,< 1e-05 s⁻¹,
A64C C68G,< 1e-05 s⁻¹,< 1e-05 s⁻¹,,,
A64C C70A,< 1e-05 s⁻¹,< 1e-05 s⁻¹,,,
A64C C70G,< 1e-05 s⁻¹,< 1e-05 s⁻¹,,,< 1e-05 s⁻¹
A64C C70U C71U,< 1e-05 s⁻¹,,,,
A64C G66U,< 1e-05 s⁻¹,< 1e-05 s⁻¹,,< 1e-05 s⁻¹,< 1e-05 s⁻¹
A64C U65G,< 1e-05 s⁻¹,4.42e-05 ± 1.1e-05 s⁻¹,,,
A64G C70A,< 1e-05 s⁻¹,,,,
A64U U65C,< 1e-05 s⁻¹,,,,< 1e-05 s⁻¹
A64U U65G,< 1e-05 s⁻¹,,,,< 1e-05 s⁻¹
C67G C70A C71U,< 1e-05 s⁻¹,,,,
A6C A15C G35A,,,< 1e-05 s⁻¹,< 1e-05 s⁻¹,
A6C A33U A36G G41A A53U U57C,,,< 1e-05 s⁻¹,,< 1e-05 s⁻¹
A6C A39G G40A A48G G62U G63U,,,< 1e-05 s⁻¹,< 1e-05 s⁻¹,
A6C A52C C68U,,,< 1e-05 s⁻¹,< 1e-05 s⁻¹,
A6C C10U A42C U56C,,,< 1e-05 s⁻¹,,
A6C C11A G35A,,,< 1e-05 s⁻¹,< 1e-05 s⁻¹,
A6C C16A U31C,,,< 1e-05 s⁻¹,< 1e-05 s⁻¹,
A6C G7U A36G C67U C68G C71A,,< 1e-05 s⁻¹,< 1e-05 s⁻¹,< 1e-05 s⁻¹,
A6C G9C A52U,,,< 1e-05 s⁻¹,,
A6C G9U A39G G66U C71A,,,< 1e-05 s⁻¹,< 1e-05 s⁻¹,
A6C G13U G29U C67U,,,< 1e-05 s⁻¹,,
A6C G32C A33U C61U G63C C70U,,,< 1e-05 s⁻¹,< 1e-05 s⁻¹,
A6C G35A G63U,,< 1e-05 s⁻¹,< 1e-05 s⁻¹,,< 1e-05 s⁻¹
A6C G37C G62C,,,< 1e-05 s⁻¹,,
